Source: patent US6436654 (PHARMACIA AND UPJOHN, dated 2002)

Target: T1, GAL4/HIF 1-826 (human, UniProt P04386 1-147 (Saccharomyces cerevisiae entry), [35S]methionine-labeled (in vitro translated) in the pull-down assay)
T1 construct: also called GAL4-HIF-1α; pCMX-GAL4-HIF-1α
Test: pull-down of in vitro translated [35S]-labeled GAL4/HIF 1-826 with purified GST

B1: GST alone (other)
chain: not shown
notes: Negative control in the pull-down assays; also called purified GST; empty GST expression vector
  binding result: no binding
